B1: chr1:61455842:61455953:+|3pUTR|ENSG00000162599|unk|FALSE|unique (ssRNA)
RNA: GGGAGUUCUACAGUCCGACGAUCUUUUCUGUAACAUAUUGGAAAAAGAAAAUGCAGUUAUAUUCCUUUUUUAUUUGUUCCUUUAGUUUGUUUUGGUUCAGCAGUCAGCAGUUAAGUAUAUAACAUGGCCCGCAAGGACAAUGACAACAGAGGAUUGAGCAUCA
B2: chr8:19954154:19954263:+|CDS|ENSG00000175445|unk|total|mutant (ssRNA)
RNA: GGGAGUUCUACAGUCCGACGAUCACCUAACUUUGAGUAUGCAGAAGCCCCGAGUCGUCUUUCUCCUGAUGAUGCAGAUUUUGCCGACGUCUUACACACAUUCACCAGAGGGUCCCCUGGUCGAAGCAUUGGAAUCCAGAAACCCAACAGAGGAUUGAGCAUCA
B3: chr6:142752714:142752806:-|3pUTR|ENSG00000010818|msi1_unk|total|mutant (ssRNA)
RNA: GGGAGUUCUACAGUCCGACGAUCUUUUCUUUACUUUGCUUAUAUUCUUAUAAGCAUUUUUCCGCAGUAAUUUGUACAUAUUUCCGAAUUUGUGUAUCUGCUUUGUAAUAAAUGUAAUUUCUUUCCUUUUUUGGACACUUGGAUCAACAGAGGAUUGAGCAUCA
B4: chr1:202726062:202726163:-|3pUTR|ENSG00000117139|unk|total|mutant (ssRNA)
RNA: GGGAGUUCUACAGUCCGACGAUCGAAAUGCACCUGAUUUGCCAUUAUACCCACCAUCAAAAGCAACAUGGCCCUUUGGGUAUCCGUGCAAGAUCCGCCUAAGAACCGAGCCGAUCUCUACCUGGAAGAGGGUGAAACAUGGCUCAACAGAGGAUUGAGCAUCA
B5: chr4:75577918:75578020:-|3pUTR|ENSG00000138769|unk|total|mutant (ssRNA)
RNA: GGGAGUUCUACAGUCCGACGAUCGGUUGUUCCGGGAACCAGAAUUUGUGAGUUUUUUUUUUUUUUUUGCCUUAACUAAUUAACCGUGUGUUGCUUUUUUUCCAAAGCCAUUGACCCGAACUCCGCUGAAGAAUUUAACCCGAACAACAGAGGAUUGAGCAUCA
B6: chrX:48700291:48700392:+|CDS|ENSG00000101945|unk|total|mutant (ssRNA)
RNA: GGGAGUUCUACAGUCCGACGAUCGCUCCGUCGCUGGGAGCAGGAGCUCAAUGCCAAGCGCAGCCAUCUGGGACGCAUCACUGCCGAGAAUGAGGUGGACCUGGACGGCCCUCCGCGGGCCUUCGUGUACAUCAAUGAGUACCGCAACAGAGGAUUGAGCAUCA
B7: chr8:122973292:122973393:+|3pUTR|ENSG00000178764|msi1|total|mutant (ssRNA)
RNA: GGGAGUUCUACAGUCCGACGAUCAGAGAUGGUCUCUCCCCAGCCAUGGGCCACCCUUGCCAGUGACUCCAAGUGGAACUACUCCGCUCGCGUGUGCCUGGAGGGUGCGGGAAGUCCAGCGACUCUCAGACGCACCUCCCAGAGCAACAGAGGAUUGAGCAUCA
B8: ENSG00000070961:be:win_1101|CDS|ENSG00000070961|bound_else_gene|NA|bound_elsewhere_windowed (ssRNA)
RNA: GGGAGUUCUACAGUCCGACGAUCAAAACUGGCUGUUCAGAUUGGCAAAGCAGGUCUGUUGAUGUCUGCCAUCACAGUUAUCAUUCUAGUAUUAUAUUUUGUCAUUGACACCUUCUGGGUUCAGAAAAGACCAUGGCUUGCUGACAACAGAGGAUUGAGCAUCA
B9: ENSG00000051108:stop:overlap|stop_codon|ENSG00000051108|stop_codon|NA|stop_codon (ssRNA)
RNA: GGGAGUUCUACAGUCCGACGAUCAUGGGUGGCUUCAGCUUUCCUGGUUCCAGCAGAUAUAUGCACGACAGUACUACAUGCAAUAGAAGGCACUGAUCCUGAAACUGAAGACCCCAACCACCUCCCUCCAGACAGGGAUGUACUCAACAGAGGAUUGAGCAUCA
B10: ENSG00000168288:stop:overlap|stop_codon|ENSG00000168288|stop_codon|NA|stop_codon (ssRNA)
RNA: GGGAGUUCUACAGUCCGACGAUCGGAGUAUCUUCACUAAUGCAACACCAGACAGCCAUAUUAUGAAGAAAUUAAGUGGAAAUUAGCAGAAAUAUCCAUUCAUUUGCUGUACUAUUUGUAUGUAAUAUUUGGGUUGAUCUAUAACAACAGAGGAUUGAGCAUCA
B11: ENSG00000198589:be:win_9651|3pUTR|ENSG00000198589|bound_else_gene|NA|bound_elsewhere_windowed (ssRNA)
RNA: GGGAGUUCUACAGUCCGACGAUCCUUCAAGUGGUCCCUCUUUUUUUCCUACACACUCAGCUCUUCUCUAAAAGCAAGGAUUUGGAAUGAACAAUUCAGUUUGACAGAAAAAGCUGAAUAAAAUGGCAUCUGUAAUUGAAUUGUCAACAGAGGAUUGAGCAUCA
B12: chr20:31606305:31606406:+|3pUTR|ENSG00000125968|msi1|FALSE|unique (ssRNA)
RNA: GGGAGUUCUACAGUCCGACGAUCUGAGGCACUGGCGAGGAGAGGGCGCUCCUCUCUGCACACCUACUAGUCACCAGAGACUUUAGGGGGUGGGAUUCCACUCGUGUGUUUCUAUUUUUUGAAAAGCAGACAUUUUAAAAAAUGCAACAGAGGAUUGAGCAUCA
B13: chr17:55719626:55720665:-|three_prime_utr|ENSG00000166292|control|control|control (ssRNA)
RNA: GGGAGUUCUACAGUCCGACGAUCUGAAAAAUCAGCUUUCUAUUUACAUGAAACACUUUGGGGGUCAUGGGAGUGCACAGCAUUAGACAGUAUUUGGUUCACCCUGUAAAGUAGCCAAGAAAAGAUGAGAAAAAUCAAGAUAGGCAACAGAGGAUUGAGCAUCA
B14: ENSG00000198898:stop:overlap|stop_codon|ENSG00000198898|stop_codon|NA|stop_codon (ssRNA)
RNA: GGGAGUUCUACAGUCCGACGAUCCUCUGAGAGCUUACGUAAAAGAACAUUACCCGAAUGGAGUCUGCACUGUAAGUCAUCAGUAGCAGCUUUGUGUGUGUGUUUUGUGUAAAUGUGAGUCUUUAGCGUCUCUUAAAAUUUACACAACAGAGGAUUGAGCAUCA
B15: chr15:73560698:73560803:-|3pUTR|ENSG00000156642|msi1_unk|total|mutant (ssRNA)
RNA: GGGAGUUCUACAGUCCGACGAUCUUUUGGGCUUGAUGUGCUGUGAAUGUUGCUUUUUUUUUUCCUUUGUUAAAAUAUUUAAACCGAAGUGAAAAGGUCCUCUGAGGAUCAGAUCAUGCAUGCGCCAUUUUUUACUUAAUGCAGCAACAGAGGAUUGAGCAUCA
B16: chr9:104535772:104536723:-|CDS|ENSG00000204246|control|control|control (ssRNA)
RNA: GGGAGUUCUACAGUCCGACGAUCGACAAGCUCAUUUCUCUGUUUUAUGGGGUAGUGACACCCAUGCUGAAUCCUAUACUCUAUAGCUUGAGAAAUAAGGAUGUAAAAGCUGCUGUAAAAUAUUUGCUGAACAAAAAACCAAUUCAACAGAGGAUUGAGCAUCA
B17: chr5:149847740:149847841:+|3pUTR|ENSG00000155846|unk|FALSE|unique (ssRNA)
RNA: GGGAGUUCUACAGUCCGACGAUCAUUGAACAAAGCUGCUUCUGUCUGUGAGUUUCCAUGGUGUUGACGUUCCACUGCCACAUUAGUGUCCUCGCUUCCAACGGGUUGUCCCGGGUGCACCUCGAAGUGCCGGGUCCGUCACCCCAACAGAGGAUUGAGCAUCA
B18: chr1:113706032:113706133:-|CDS|ENSG00000116793|unk|FALSE|unique (ssRNA)
RNA: GGGAGUUCUACAGUCCGACGAUCCAAUGCCUAUCAGCAAGGAGUAGGUUAUCAGAUGCUGGGAAAUGUUGUCACUAUUGGAUUAGCAUUUUUUCCAUUCUUACAUCGACUUUUCCGUGAGAAGAGCCUUGACCAACUAAAGUCCAACAGAGGAUUGAGCAUCA
B19: ENSG00000175215:stop:overlap|stop_codon|ENSG00000175215|stop_codon|NA|stop_codon (ssRNA)
RNA: GGGAGUUCUACAGUCCGACGAUCUUGAGGAGCUGAGCGGAGCAGAGGACGUCUACACCAGCCUUGGGCAGCUGCGGGCCCCUUAGCCUGCCCUGCUUCCAAGCGACGGCCAUCCCAGUAGGGGACUUUCCCACACUGUGCCUUCAACAGAGGAUUGAGCAUCA
B20: chr17:58090057:58090109:+|3pUTR|ENSG00000264364|msi1_unk|FALSE|overlapping (ssRNA)
RNA: GGGAGUUCUACAGUCCGACGAUCGGGUAGGAUUAGCUUGAAUCUUUUUUUUCUUUACAUUUUUCUCCUGUCUGCUCCCUGCUUAGCCCUCAGUUUCCUCAUUCCUCUGGAGUUCUCUUAGAGCAGCCCCUGUUGUUAGUUGGCCAACAGAGGAUUGAGCAUCA
B21: chr17:43640388:43641946:-|three_prime_utr|ENSG00000005102|control|control|control (ssRNA)
RNA: GGGAGUUCUACAGUCCGACGAUCCCUCUCCACAUCUUUCCCUGACUCUUGGAUAUGAAACUGCCCAGCAUUCCUGGGAGUCUUAGGAUUUUCUAGGAAGUUCUGUCCAGCCUCUUAGCAGCCUCUUCCCUAGGGCCUUUGCUCCAACAGAGGAUUGAGCAUCA
B22: ENSG00000198589:be:win_5351|CDS|ENSG00000198589|bound_else_gene|NA|bound_elsewhere_windowed (ssRNA)
RNA: GGGAGUUCUACAGUCCGACGAUCAUUCAGUUUCACAAGAUCCGGUUUCAAAUAUGAGUAUUACAGAGAGGCUUGAACACGCUUUGGAAAAGGCAGCUCCUCUCCUUCGUGAGAUUUUUGUGGAUUUUGCACCUUUUCUUUCUCCAACAGAGGAUUGAGCAUCA

This is one part of the list.

The test addresses MSI1 full-length (mouse, UniProt Q61474 1-362). The test can be described thus: nsRBNS (natural sequence RNA bind-n-seq); RBNS binding buffer (assumed for nsRBNS): 25 mM Tris pH 7.5, 150 mM KCl, 3 mM MgCl2, 0.01% Triton X-100, 500 ug/ml BSA, 20 U/ml SUPERase-In, 4 C; UNK is unkempt and MSI1 is Musashi-1; names of the RNAs are library labels; protein concentration not given here; high values mean tight binding.
Sequence of UniProt Q61474 (Q61474 whole entry): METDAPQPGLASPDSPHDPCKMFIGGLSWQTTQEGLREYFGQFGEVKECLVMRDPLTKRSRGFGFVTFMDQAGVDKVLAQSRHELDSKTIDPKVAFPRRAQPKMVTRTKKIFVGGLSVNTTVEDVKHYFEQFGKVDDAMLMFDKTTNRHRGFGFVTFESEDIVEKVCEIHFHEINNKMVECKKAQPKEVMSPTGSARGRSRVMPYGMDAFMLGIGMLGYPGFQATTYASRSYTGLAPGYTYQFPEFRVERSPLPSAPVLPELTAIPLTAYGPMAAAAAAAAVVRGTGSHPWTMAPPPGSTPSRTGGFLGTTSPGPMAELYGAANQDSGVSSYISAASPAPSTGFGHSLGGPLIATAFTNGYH
Take B1: the binding signal came out at 1.53 enrichment R.

Consider B2, for which the binding signal came out at 0.588 enrichment R.

Take B3: the binding signal turned out to be 0.478 enrichment R.

Molecule B4 returned a binding signal of 0.333 enrichment R.

On to B5, for which the binding signal was 1.9 enrichment R.

In the case of B6, the binding signal is 0.399 enrichment R.

B7 yielded a binding signal of 0.385 enrichment R.

Turning to B8, the binding signal was 4 enrichment R.

Molecule B9 yielded a binding signal of 0.502 enrichment R.

B10 yielded a binding signal of 1.08 enrichment R.

For B11, the binding signal is 0.318 enrichment R.

B12: the binding signal came to 0.414 enrichment R.

In the case of B13, the binding signal is 1.7 enrichment R.

The molecule B14 showed a binding signal of 0.84 enrichment R.

Regarding B15, the binding signal turned out to be 0.447 enrichment R.

B16: the binding signal stood at 0.458 enrichment R.

Take B17: the binding signal worked out at 0.593 enrichment R.

Regarding B18, the binding signal amounted to 0.304 enrichment R.

For B19, the binding signal was found to be 0.404 enrichment R.

Consider B20, for which the binding signal stood at 4.46 enrichment R.

B21 displayed a binding signal of 0.806 enrichment R.

For B22, the binding signal was found to be 0.391 enrichment R.

The values above are taken from PMC12136788.
